Screen size: about 45,000 compounds; about 65 (0.1%) were called active. Calls come from the whole dose curve; as a rule, active = well fitted activation curve with a large enough effect; inconclusive = small, poorly fitted or top-dose-only effect; inactive = no such curve, though single readings can be large or run the other way. The list shows a part of the results.
The compounds below were run against Galactocerebrosidase (Homo sapiens) (UniProt P54803) (assay: A Novel Cell-Based Assay to Identify Small Molecules for B -Galactocerebrosidase). Details: 145M-Twi-hGALC-G270D cells, HMU-beta-Gal fluorescence, 48 h; series mostly up to 57.5 µM; activation: at the top concentration.
UniProt P54803, sequence (P54803 whole entry, looked up): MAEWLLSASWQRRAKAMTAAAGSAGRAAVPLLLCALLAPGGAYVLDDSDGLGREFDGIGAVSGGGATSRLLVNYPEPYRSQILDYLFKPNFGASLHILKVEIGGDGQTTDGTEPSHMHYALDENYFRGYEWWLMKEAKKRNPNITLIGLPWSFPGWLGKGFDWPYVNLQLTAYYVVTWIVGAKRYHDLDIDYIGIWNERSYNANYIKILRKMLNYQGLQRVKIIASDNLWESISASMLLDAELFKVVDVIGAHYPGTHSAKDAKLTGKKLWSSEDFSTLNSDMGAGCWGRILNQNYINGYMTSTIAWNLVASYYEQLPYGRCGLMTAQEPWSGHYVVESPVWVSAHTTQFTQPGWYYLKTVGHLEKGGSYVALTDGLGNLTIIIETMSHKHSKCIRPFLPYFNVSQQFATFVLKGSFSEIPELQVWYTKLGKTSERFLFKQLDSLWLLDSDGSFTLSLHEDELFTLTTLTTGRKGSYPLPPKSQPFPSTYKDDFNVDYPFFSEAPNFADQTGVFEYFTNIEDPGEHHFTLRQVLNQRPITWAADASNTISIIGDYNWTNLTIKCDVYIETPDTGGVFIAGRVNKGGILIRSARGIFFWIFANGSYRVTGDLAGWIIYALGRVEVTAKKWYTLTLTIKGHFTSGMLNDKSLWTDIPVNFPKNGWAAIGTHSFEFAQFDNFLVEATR
Outline: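 qHTS, 1536-well; 145M-Twi-hGALC-G270D cells (WT line also made) in DMEM/F12 + 10% FBS; compound incubation on live cells; HMU-β-gal 0.1 mM final, pH 5.2, NaTC; carbonate stop; fluorescence increase = enhanced residual activity.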
Note: 0% is about no effect; nearly all actives have a fitted effect of over 65% in size.

activation, inactive:
CCCc1noc(-c2ccc(NCc3ccc(C)cc3)c([N+](=O)[O-])c2)n1 -15.7%
Cc1ccc(NC(=O)Cn2c(=O)n(Cc3ccc4c(c3)OCO4)c(=O)c3ccccc32)cc1 -9.5%
COc1ccc(-c2cn3c(n2)sc2cc(C(=O)NCc4cccc(F)c4)ccc23)cc1 -14.7%
Cc1ccc(C(=O)c2cn(Cc3ccccc3C)c3nc(C)ccc3c2=O)cc1 -13.3%
Cc1ccccc1-c1cc2nccc(-c3cc(Cl)ccc3O)n2n1 -19.1%
Cc1ccc(NC(=O)CN2C(=O)COc3ccc(S(=O)(=O)NC4CCCC4)cc32)c(Cl)c1 -3.47%
Cc1nc(C)c(CCNS(=O)(=O)c2ccc(F)cc2)s1 -31.3%
CCCCNC(=O)CSc1nc2cc3c(cc2c(=O)n1CCCCCC(=O)NCc1ccc(OC)cc1)OCO3 -10.2%
CCc1ccc(Nc2nnc(-n3nc(C)cc3C)c3ccccc23)cc1 -20.1%
COc1ccc(CNC(=O)c2cnc3sc(N4CCCC4)nn3c2=O)c(OC)c1 -9.2%
COc1ccc(N(Cc2cccs2)C(=O)Nc2cccc(Cl)c2)cc1 -1.58%
CCOC(=O)C1CCCN(S(=O)(=O)c2ccc3c(c2)oc(=O)n3C)C1 (stereo not drawn) -1.37%
COc1ccc(C2CC(=O)N(CC(=O)Nc3ccc(C)c(Cl)c3)c3ccccc3S2)cc1OC (stereo not drawn) -2.24%
COc1ccc(-c2nc(SCC(=O)NC3CCCC3)c(-c3ccc(C)cc3)[nH]2)cc1OC -42.5%
CCOc1ccc(NC(=O)C(=O)NCC(c2cccnc2)N2CCc3ccccc32)cc1 (stereo not drawn) -15.5%
COc1cccc(NC(=O)CCc2c(C)nc3ncnn3c2C)c1 -16.5%
Cc1ccccc1NC(=O)CCN1C(=O)c2ccccc2Sc2ncccc21 -1.55%
Cc1ccccc1C(=O)NCCc1sc(-c2ccc(Cl)cc2)nc1C -13.9%
COc1ccc(CNC(=O)Cc2csc3nc(-c4ccc(F)cc4)cn23)cc1 -17.3%
O=C1C(c2ccc(C(F)(F)F)cc2)=C(Nc2ccc(Cl)cc2)c2ccccc21 -14.9%
Cc1nnsc1C(=O)Oc1ccccc1Cl -13.9%
Cc1cccc(-c2cc(NC(=O)COc3ccccc3F)n(-c3ccccc3)n2)c1 -15%
Cc1ccc(-n2c(=O)c3sccc3n(Cc3cc(=O)n4ccccc4n3)c2=O)cc1 -15.1%
COc1ccc(C(=O)N2CCC(C(=O)Nc3ccc(OC)cc3OC)CC2)cc1 -16.6%
CCN(C(=O)Cn1nc(Cc2cccnc2)c2ccccc2c1=O)c1cc(C)ccc1C -15.3%
Cc1ccccc1C(=O)Nc1nnc(S(=O)(=O)N2CCCc3ccccc32)s1 -13.5%
CCN(CC)CCOC(=O)c1ccc(NC(=O)CCn2c(=O)oc3ccccc32)cc1 -2.86%
Cc1ccc(-c2cn3c4c(=O)n(C)c(=O)n(C)c4nc3n2-c2cccc(Cl)c2)cc1 -26.3%
CSc1ccccc1NC(=O)CCS(=O)(=O)c1nc(-c2cccs2)cc(C(F)(F)F)n1 -13%
Cc1ccc(NC(=O)CSc2nnc(-c3cc4occc4n3C)n2-c2ccccc2C)cc1F -8.58%
COc1ccc(C(=O)N=c2sc3cc(Cl)ccc3n2C)cc1 0.116%
CCn1c(C(=O)Nc2cc(C)cc(C)c2)cc2sc(Cl)cc21 1.34%
CCCCN(C)c1ncnc2c1cnn2-c1cccc(Cl)c1 -3.44%
CN1[C@@H]2CC[C@H]1CC(OC(=O)c1c[nH]c3ccccc13)C2 (stereo partly drawn) -18.1%
N#Cc1ccccc1NC(=O)C(=O)NCC(c1cccnc1)N1CCc2ccccc2C1 (stereo not drawn) -20%
COc1ccc(N(CC(=O)Nc2ccc(Cl)cc2C)S(=O)(=O)c2ccccc2)c(OC)c1 -19.5%
COc1cc(-c2nnc(SCC(=O)N3CCCc4ccccc43)o2)cc(OC)c1OC -7.94%
O=C(NCc1ccccc1Br)c1ccc(-n2cnc3cccnc32)cc1 -0.431%
CCc1ccc(S(=O)(=O)c2nnn3c2nc(Nc2cccc(C)c2C)c2sccc23)cc1 -10.7%
CCC(=O)N1CCc2cc(S(=O)(=O)NCCC(=O)Nc3cccc(C)c3C)ccc21 -18.5%
COc1cccc(CNc2ccc3c(c2)ncn3C)c1OC -21.9%
Cc1cc(SCC(=O)NCc2ccccc2)nc(=O)[nH]1 -12.4%
CCOc1ccccc1NC(=O)C1CCCN(S(=O)(=O)c2ccc3c(c2)CCCN3C(C)=O)C1 (stereo not drawn) -18.6%
COc1ccc(OC)c(CCNC(=O)C(C)n2nc(C)c3c(C)n(-c4ccc(C)cc4)nc3c2=O)c1 (stereo not drawn) -12.7%
Cc1ccc(Cl)cc1N1CCN(C(=O)Cn2nc(C)n3c(cc4sccc43)c2=O)CC1 -46.9%
CCOC(=O)c1c(-c2ccccc2)csc1NC(=O)c1cc(-c2cccc(OC)c2)on1 2.11%
Cc1cc(C)cc(C(=O)Nc2c3c(nn2-c2ccccc2C)CS(=O)(=O)C3)c1 -25.3%
CCCN(C(=O)CCn1cnc2onc(-c3ccc(F)cc3)c2c1=O)c1ccccc1C 6.61%
O=C(CN1C(=O)COc2ccc(S(=O)(=O)N3CCCCCC3)cc21)N1CCN(c2ccccc2)CC1 -12.7%
Cc1cc(C)cc(NC(=O)Cn2nnc(C(=O)NCc3ccco3)c2N)c1 -16.6%
CCC(=O)N1c2nc(C(C)C)nn2C2(CCCCC2)[C@@H]2CCCC[C@@H]21 -1.1%
Cc1ccc(C(=O)Nc2nnc(SCc3cc(=O)n4ccc(C)cc4n3)s2)cc1 2.88%
O=C(Cn1nc2c(cc1=O)CCCC2)NCc1ccccc1Cl -23.4%
COc1ccc(NCc2cccn2-c2nnc(N3CCOCC3)s2)c(OC)c1 -13.6%
O=C(Cn1c(SCc2cccc(F)c2)nc2ccncc21)Nc1ccc(Cl)cc1F -11.8%
CCOc1cc(CNC(=O)C(NS(=O)(=O)c2cccs2)C(C)C)cc(OCC)c1OCC (stereo not drawn) -28.1%
O=C(NNc1ncnc2c1cnn2-c1ccccc1)c1ccccc1 -20.9%
CCOC(=O)c1cccc(NC(=O)C2CCN(c3nnc(C)c4c(C)n(-c5ccccc5)nc34)CC2)c1 -1.77%
COCCNC(=O)Cn1c(=O)n(-c2ccc(C)c(C)c2)c(=O)c2c3c(sc21)CCCCC3 3.21%
COc1ccc(Cl)cc1NC(=O)C(C)N1Cc2ccccc2C1=O (stereo not drawn) -11%
COc1ccc(NC(=O)CN2CCN(S(=O)(=O)c3ccc(Br)cc3)CC2)cc1 -6.43%
CCOc1ccccc1CNC(=O)c1cccc(NC(=O)c2nsc3ccccc23)c1 -5.12%
CCOC(=O)c1c(NC(C)=O)c2c3c(sc2n1Cc1cccc(Cl)c1)CCCC3 -11.5%
Cc1ccc(C(CC(=O)Nc2ccc(C)cc2C)N2Cc3ccccc3C2=O)cc1 (stereo not drawn) -31.3%
Cc1cn2c(=O)cc(COc3cccc(NC(=O)c4cccc(F)c4)c3)nc2s1 -6.39%
COc1ccc(C(=O)Nc2ccc3nc(N4CCCCC4)cc(C)c3c2)c(OC)c1 -6.99%
COc1ccc(N2CCN(S(=O)(=O)CCNC(=O)Cc3ccc(-c4ccccc4)cc3)CC2)cc1 -13.5%
CCCc1oc2ccc(NS(=O)(=O)c3ccc(OC)cc3)cc2c1C(=O)OCC -10.6%
CCC(Oc1ccc(F)cc1)C(=O)Nc1cc(-c2ccc(C)cc2)no1 (stereo not drawn) -18.2%
COc1cccc(CNC(=O)Nc2cc(C(=O)NCc3cccc(F)c3)ccc2N2CCCC2)c1 -17%
CCNC(=O)CCSc1nnc(-c2ccc(O)cc2)o1 -14.1%
Cn1c(=O)c2ccccc2n2c(CCC(=O)N3CCN(c4cccc(Cl)c4)CC3)nnc12 -15.6%
CCOc1ccc(NC(=O)CC2C(=O)N(c3cccc(OC)c3)C(=O)N2C2CCCCC2)cc1 (stereo not drawn) -11.3%
CCOc1cc(CNC(=O)c2ccc(NC(=O)c3nsc4ccccc34)cc2)ccc1OC -25.2%
CCN(CC)c1ccc(NC(=O)c2cc(CN3CCCC3)on2)c(C)c1 -19.4%
COc1ccc(Cn2c(SCC(=O)NCc3ccccc3)nc3ccccc32)cc1 -42.6%
CCCCn1c(Oc2cccc(C(=O)OC)c2)nc2c1c(=O)n(C)c(=O)n2C 17.8%
Cc1ccc(C(=O)NCC(=O)OCc2cc(=O)n3nc(C4CCCCC4)sc3n2)cc1 -3.14%
CCOc1ccc(NC(=O)Cn2nnc(C(=O)OC)c2C(=O)OC)cc1 -19%
COc1ccccc1C(=O)Nc1cc(-c2cccc(Br)c2)nn1-c1ccccc1 -16.9%
Cc1cc(C)cc(N2C(=O)CC(c3ccc(C(F)(F)F)cc3)C3=C2COC3=O)c1 (stereo not drawn) -8.79%
COc1ccc(Cl)cc1NC(=O)C(C)n1nnc2sc3c(c2c1=O)CCCC3 (stereo not drawn) -0.387%
Cc1cccc(NC(=O)CSc2nc(-c3cccs3)cc(C(F)(F)F)c2C#N)c1 3.11%
CCN1CCN(c2csc3ccc(Cl)cc3c2=O)CC1 -14.7%
CCc1cccc(NC(=O)Cn2nc(CC)n3c(cc4cc(C)ccc43)c2=O)c1 -18.7%
O=c1oc2ccc3ccccc3c2cc1-c1nnc(Nc2ccccc2)s1 1.51%
COc1ccc(C(=O)NC2(C(F)(F)F)C(=O)NC(C)=C2C#N)cc1 (stereo not drawn) -5.89%
Cc1ccc2c(c1)C(c1ccc(F)cc1)N(C(=O)C(C)C)CC(=O)N2 (stereo not drawn) 7.83%
CCC(=O)Nc1cc(C(=O)NCc2ccc(C)cc2)ccc1S(=O)(=O)c1ccc(C)cc1 -22.9%
COc1ccc(N2CCN(S(=O)(=O)c3ccc(-c4cc(C(F)(F)F)on4)s3)CC2)cc1 -7.42%
COc1cccc(NC(=O)CSc2nc(O)c(C/C=C/c3ccccc3)c(=O)[nH]2)c1 -15.1%
COc1cc(NC(=O)c2nc3cc(C)c(C)cc3n(C)c2=O)cc(OC)c1OC -12.6%
Cc1ccc(CCNC(=O)c2sc3ncccc3c2-n2cccc2)cc1 -10.2%
CC1CCC(NC(=O)C2(C)Cc3ccccc3C(=O)N2Cc2ccccc2Cl)CC1 (stereo not drawn) -5.93%
Cc1cc(C)c2oc(C(=O)Nc3c(C(=O)c4ccc(F)cc4)oc4ccccc34)cc(=O)c2c1 -15.1%
Cc1cccc(OCc2ccc(-c3nc(C#N)c(N4CCN(c5ccccc5)CC4)o3)o2)c1 -12.7%
Cc1ccc(C)c(CN2C(=O)c3ccccc3Sc3ccc(C(=O)NCc4ccco4)cc32)c1 3.21%
CCc1cccc(C)c1Nc1c(-c2ccc(N(C)C)cc2)nc2ncccn12 -38.3%
